Assay results published in the supplement of paper PMC11417369.
± gives the standard deviation of the averaged measurements. The list shows a part of the results.

system: PfAP2-LT AP2 domain (GST-tagged); assay: gcPBM binding intensity (ln(normalized median fluorescence intensity)); higher = stronger DNA binding
Procedure, shortened: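 The binding buffer was 1× PBS containing 1% milk, 0.2 mg/ml BSA, 0.5% salmon testes DNA and 0.03% Triton X-100. In it, GST-tagged P. falciparum DNA-binding domains expressed in E. coli were applied for 1 h to an Agilent 4 × 180k array of primer-extended double-stranded 36-bp intergenic genomic probes plus negative controls. Binding intensity, read with Alexa488 anti-GST antibody and a 488 nm scan, is the highest Masliner-normalised natural-log median intensity across replicate spots of either probe orientation.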

Row | Sequence | gcPBM binding intensity (ln)
1 | TTTTCAAAATGTTGTACACACAAAAAAAAAAAAAAA [CACACA_site1550] | 8.71 ± 0.45
2 | ATGTATATGTTTTGTTGTACAAGTATTTTATATCTT [XGTACX_site3588] | 9 ± 0.42
3 | TTTCAATTTATCAGTGTGCACAAAAATAAAATAAAA | 8.93 ± 0.65
4 | TAAATACAGACATATACACACATATATATATATATA [CACACA_site4382] | 9.925 ± 0.0071
5 | GAATATTAAACAAACACACACACATATATATATATA [CACACA_site3382] | 10.1 ± 0.2
6 | AGTAGTCTGGAGAAAAGTACACAGTATCTGGTAACC [XGTACX_site2035] | 8.87 ± 0.49
7 | AATATATACATACATACATGCATACATATATATAAC [TGCATGCA_site371] | 9 ± 0.37
8 | TTTAAATATATTCAATCACACACATTCGTTTTTTTT [CACACA_site7962] | 8.96 ± 0.44
9 | GTATAAAAATTATATACACACAACAGAATTACATAT [CACACA_site133] | 9.12 ± 0.42
10 | GTTTATTGATTTATTTGTACTTATATATATATTTCA [XGTACX_site5098] | 9.04 ± 0.45
11 | AATAAAAATATAGGCACACATATTAAAATGAACTTA [CACACA_site830] | 8.9 ± 0.5
12 | TTATGTATCCTTATAAGAAAAAAAAAAAAATTCTCT [CACACA_negctrl_site1183] | 8.21 ± 0.4
13 | TAAAGATGTATTTATTCACACATCTCATATAATGAA [CACACA_site5229] | 8.49 ± 0.39
14 | TGAATTTAGATATATACACACAAAAGTAAATACAAT [CACACA_site5548] | 9.1 ± 0.47
15 | TATAAATAGATATATACACACATTTTTAATGATAAA [CACACA_site7299] | 8.78 ± 0.45
16 | TTTTTATTTTTTCAAGTGCATATTTTTGGCTTCTTA | 8.57 ± 0.54
17 | TATATATATATATTACGTTTTAAATATACTAATCTT [CACACA_negctrl_site32] | 8.88 ± 0.29
18 | AAAAAAAAAAAAAATACACACATATATATATATATA [CACACA_site85] | 9.96 ± 0.085
19 | CTTTTTCCTTTATATTGTACATAATTAAAGATAATA [XGTACX_site7014] | 8.36 ± 0.35
20 | TAAATTTATATATAGGTGCGCAATTTGATAATAGTT [GTGCAC_site9783] | 9.04 ± 0.39
21 | AAAAAAAAAAGACACACACACAATAGTATATAAATC [CACACA_site6579] | 9.85 ± 0.26
22 | TTTTTGTATGCTTCCCGATTACATTATGTTGTAAAT [CACACA_negctrl_site227] | 8.95 ± 0.47
23 | ATTTATGTTATATATACACACACAAAAGAAAAAAAA [CACACA_site8977] | 9.21 ± 0.36
24 | TCCTACATATAAAAATGTACCCATTGTTTTTTTTTT [XGTACX_site7205] | 8.54 ± 0.64
25 | TATATATATATATATACACACATATACATATTGTTT [CACACA_site3499] | 9.71 ± 0.33
